Source: PubChem BioAssay AID1345083 (National Center for Advancing Translational Sciences (NCATS), 2018)
Screen size: about 94,000 compounds; about 6,200 (6.6%) were called active. The shares of active, inactive and inconclusive entries below differ from those in the screen. Calls follow the shape of the dose curve; as a rule, active = well fitted inhibition curve with a large enough effect; inconclusive = small, poorly fitted or top-dose-only effect; inactive = flat fitted curve, though single readings scatter. Where the call is inconclusive, the potency comes from a doubtful curve fit.

assay: Cytotoxic Profiling in HEK 293 Cell Line of Diverse Libraries Using Quantitative High-Throughput Screening; conditions: HEK 293 viability, ATP luminescence (CellTiter-Glo), 48-72 h; series mostly up to 115 µM; also: nearly all actives have a fitted effect of over 60% in size
Method in brief: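 Cytotoxicity was scored by loss of ATP-coupled luminescence (CellTiter-Glo) in HEK 293 cells. Compound treatment ran 48 or 72 hr at 37 degree Celsius, 5% CO2, 95% humidity.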
Potency is read from the fitted curve at half-maximal effect; tags tell the direction and shape of the fitted curve.

Row | SMILES | Potency
1 | O=C1CC2(CCN(C(=O)c3ccc(CSc4ccccc4)o3)C2)C(=O)N1 (centres undefined) | inconclusive: 8.91 µM [inhibitor, partial curve, poor fit]
2 | CCN(CC)[C@H]1[C@@H]2OC[C@@H](O2)[C@@H](NCc2ccc(-c3ccccc3)cc2)[C@@H]1O | inconclusive: 79.4 µM [inhibitor, partial curve, poor fit]
3 | Cc1cccnc1CN1CCN(c2ncncn2)CC1 | inactive
4 | O=S1(=O)NC2(CCCN(Cc3ccc(Cl)cc3)C2)COc2ccccc21 (centres undefined) | inconclusive: 63.1 µM [inhibitor, partial curve, poor fit]
5 | COc1cccc(CN2CCCn3nc(C)c(-c4cnccc4C)c32)c1 | inconclusive: 56.2 µM [inhibitor, full curve, poor fit]
6 | CN1CCC2(C1)CN(CC1CCOCC1)c1ccc(C(=O)Nc3ccn(C)n3)cc12 (centres undefined) | inconclusive: 100 µM [inhibitor, partial curve, poor fit]
7 | O=C(NCc1ccccc1)N[C@H]1CO[C@H]2[C@@H]1OC[C@H]2OC(=O)Nc1cccc(C(F)(F)F)c1 | inconclusive: 89.1 µM [inhibitor, single point]
8 | O=C(C1CCCC1)N1CCN(c2nccc(Nc3ccccc3Cl)n2)CC1 | inconclusive: 31.6 µM [inhibitor, partial curve, poor fit]
9 | O=C([C@@H]1C[C@H](Oc2cccnc2)CN1C(=O)c1ccc2ccccc2n1)N1CCCC1 | inactive
10 | O=C1CC2(CCN(C(=O)C3CCCN(C(=O)c4ccccc4F)C3)CC2)Oc2ccccc2N1 (centres undefined) | inconclusive: 56.2 µM [inhibitor, partial curve, poor fit]
11 | CCc1ccc(C2CC(C(=O)NC(C)c3ccccc3)CN(C(=O)c3ccoc3)C2)cc1 (centres undefined) | inconclusive: 31.6 µM [inhibitor, partial curve, poor fit]
12 | CC(=O)NCCC1CCN(C(=O)Nc2ccc(C)cc2)CC1 | inactive
13 | O=c1n(-c2ccc(C(F)(F)F)cc2)nc2n1CCN(Cc1cccnc1)C2 | inconclusive: 63.1 µM [inhibitor, partial curve, poor fit]
14 | CCOc1c(CN(C)C(=O)Cn2cccc(OC)c2=O)cccc1OC | inconclusive: 39.8 µM [inhibitor, full curve, poor fit]
15 | Cc1nn(-c2ccccc2)c2c1C(C(C)C)N(C1CN(C(=O)Nc3ccccc3)C1)C2=O (centres undefined) | inconclusive: 39.8 µM [inhibitor, full curve]
16 | Cn1cc(Cl)c(C(=O)N2CCOC(c3ccc(Cl)c(Cl)c3)C2)n1 (centres undefined) | inconclusive: 50.1 µM [inhibitor, partial curve, poor fit]
17 | O=C(C[C@@H]1CCNC[C@@H]1Cc1cc(-c2ccccc2)on1)NCc1cccnc1 | inactive
18 | CN(C)C(=O)c1cc(-c2ccc(Cl)cc2)cn1C | inconclusive: 20 µM [inhibitor, partial curve, poor fit]
19 | CN1C[C@H](NC2CCC2)CCC[C@@H](C(=O)NC2CCOCC2)CC1=O | inconclusive: 126 µM [inhibitor, single point]
20 | COCCOC1CCN(S(=O)(=O)c2ccc(F)cc2)CC1 | inactive

Row | SMILES | Potency
21 | COc1ccc(F)c(CN2CCCC(O)(CN3CCC(CCO)CC3)C2=O)c1 (centres undefined) | inconclusive: 89.1 µM [inhibitor, single point]
22 | CN1C(=O)C2(CCCN(C(=O)c3ccc(Cl)cc3)C2)Cc2ccccc21 (centres undefined) | inconclusive: 50.1 µM [inhibitor, partial curve, poor fit]
23 | Cc1ncoc1C(=O)N1CCC(c2noc(-c3ccccc3)n2)C1 (centres undefined) | inconclusive: 79.4 µM [inhibitor, single point]
24 | Cc1cccc(-c2nc3cc(C(=O)NCC(C)C)ccc3o2)n1 | inconclusive: 50.1 µM [inhibitor, partial curve, poor fit]
25 | O=C(c1ccc(C(F)(F)F)cc1)N1CCC2(C1)C(=NC1CCCCC1)NC(=O)N2c1cc(F)cc(F)c1 (centres undefined) | inactive
26 | CCn1cc(-c2ccc(Cl)cc2)cc1C(=O)N1CCCN(C)CC1 | active: 25.1 µM
27 | Cc1nc(C)c(C(=O)N2CCCN(Cc3ccncc3)C(c3ccccc3)CC(=O)NCC2)s1 (centres undefined) | inactive
28 | COc1ccc(CNC(=O)Nc2cccc(-c3ccc(N4CCOCC4)nn3)c2)cc1 | inconclusive: 20 µM [inhibitor, full curve]
29 | O=C(NCc1ccccc1F)c1ccc2c(c1)CN(Cc1cncs1)CCO2 | inconclusive: 89.1 µM [inhibitor, single point]
30 | CSc1ccc(NC(=O)N2CCc3nc4cc(-c5ccccc5)[nH]n4c(=O)c3C2)cc1 | inconclusive: 31.6 µM [inhibitor, partial curve, poor fit]
31 | COc1ccc2[nH]c3c(c2c1)CCNC31CCN(C(C)C)CC1 | inconclusive: 56.2 µM [inhibitor, partial curve, poor fit]
32 | O=C(O)c1ccc(-c2ncc3cnc(-c4cccc(F)c4)cn23)cc1 | inactive
33 | COc1ccc(C(=O)NC2CCN(c3cc(-c4ccc(Cl)cc4)[nH]n3)C2)cc1F (centres undefined) | active: 39.8 µM
34 | CC(C)CCCC1CN(C(=O)c2cn(CCCN)nn2)CCO1 (centres undefined) | inconclusive: 89.1 µM [inhibitor, single point]
35 | Cn1cc(CN2CCCC(COc3ccccc3C(=O)N3CCCCC3)C2)c2ccccc21 (centres undefined) | inconclusive: 50.1 µM [inhibitor, partial curve, poor fit]
36 | Cc1ccc(-c2ccccc2CN2CCN(C(=O)c3ccccc3)CC2)cc1Cl | inconclusive: 39.8 µM [inhibitor, partial curve, poor fit]
37 | NCCC1CN(Cc2cc3ccccc3s2)CCO1 (centres undefined) | inconclusive: 63.1 µM [inhibitor, partial curve, poor fit]
38 | Cc1onc(C(=O)NCc2ccc3[nH]c(-c4ccc(F)cc4)c(C)c3c2)c1CO | inconclusive: 11.2 µM [inhibitor, full curve, poor fit]
39 | COc1ccc(N2CCN(C(=O)C3CC(=O)N(c4n[nH]c5cccc(F)c45)C3)CC2)cc1 (centres undefined) | active: 39.8 µM
